# Some of the results follow.
# How the values were obtained:
# Assay in all cases: glycan array binding signal (z-score within array); higher = stronger binding
# Settings in all cases: glycan notation: IUPAC condensed, linker removed
# [1] = molecular target: Gal(b1-3)GlcNAc(b1-6)GalNAc
# Summary of the method: (§1)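 The binding signal is a Z-score computed within each array. Data were drawn from 3228 arrays in the Consortium for Functional Glycomics database, restricted to those with a known protein sequence. Scores were averaged over arrays of the same protein sequence at different concentrations or buffers, and over linkers, and negative values can be taken as non-binding.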
# [2] = molecular target: Gal(b1-3)GlcNAc(b1-6)[Gal(b1-3)]GalNAc
# Summary of the method: as §1
# [3] = molecular target: Gal(b1-3)GlcNAc6S
# Summary of the method: as §1
# [4] = molecular target: Gal(b1-3)[Fuc(a1-4)]GlcNAc
# Summary of the method: as §1
# [5] = molecular target: Gal(b1-3)[Fuc(a1-4)]GlcNAc(b1-2)Man
# Summary of the method: as §1
# [6] = molecular target: Gal(b1-3)[Fuc(a1-4)]GlcNAc(b1-2)Man(a1-3)[Gal(b1-3)[Fuc(a1-4)]GlcNAc(b1-2)Man(a1-6)]Man(b1-4)GlcNAc(b1-4)[Fuc(a1-6)]GlcNAc
# Summary of the method: as §1
# [7] = molecular target: Gal(b1-3)[Fuc(a1-4)]GlcNAc(b1-3)Gal(b1-3)[Fuc(a1-4)]GlcNAc
# Summary of the method: as §1
# [8] = molecular target: Gal(b1-3)[Fuc(a1-4)]GlcNAc(b1-3)Gal(b1-4)[Fuc(a1-3)]GlcNAc
# Summary of the method: as §1
# [9] = molecular target: Gal(b1-3)[Fuc(a1-4)]GlcNAc(b1-6)GalNAc
# Summary of the method: as §1
# [10] = molecular target: Gal(b1-3)[GlcNAc(b1-6)]GalNAc
# Summary of the method: as §1
# [11] = molecular target: Gal(b1-3)[Neu5Ac(a2-6)]GalNAc
# Summary of the method: as §1
# [12] = molecular target: Gal(b1-3)[Neu5Ac(a2-6)]GlcNAc(b1-4)Gal(b1-4)Glc
# Summary of the method: as §1
# [13] = molecular target: Gal(b1-3)[Neu5Ac(b2-6)]GalNAc
# Summary of the method: as §1
# [14] = molecular target: Gal(b1-4)Gal
# Summary of the method: as §1
# [15] = molecular target: Gal(b1-4)GalNAc(a1-3)[Fuc(a1-2)]Gal(b1-4)GlcNAc
# Summary of the method: as §1
# [16] = molecular target: Gal(b1-4)GalNAc(b1-3)[Fuc(a1-2)]Gal(b1-4)GlcNAc
# Summary of the method: as §1
# [17] = molecular target: Gal(b1-4)Glc
# Summary of the method: as §1
# [18] = molecular target: Gal(b1-4)Glc6S
# Summary of the method: as §1
# [19] = molecular target: Gal(b1-4)GlcNAc
# Summary of the method: as §1
# [20] = molecular target: Gal(b1-4)GlcNAc(a1-6)Gal(b1-4)GlcNAc
# Summary of the method: as §1
# [21] = molecular target: Gal(b1-4)GlcNAc(b1-2)Man
# Summary of the method: as §1
# [22] = molecular target: Gal(b1-4)GlcNAc(b1-2)Man(a1-3)Man(b1-4)GlcNAc(b1-4)GlcNAc
# Summary of the method: as §1
# [23] = molecular target: Gal(b1-4)GlcNAc(b1-2)Man(a1-3)[Gal(b1-4)GlcNAc(b1-2)Man(a1-6)]Man(b1-4)GlcNAc(b1-4)GlcNAc
# Summary of the method: as §1
# [24] = molecular target: Gal(b1-4)GlcNAc(b1-2)Man(a1-3)[Gal(b1-4)GlcNAc(b1-2)Man(a1-6)]Man(b1-4)GlcNAc(b1-4)[Fuc(a1-6)]GlcNAc
# Summary of the method: as §1
# [25] = molecular target: Gal(b1-4)GlcNAc(b1-2)Man(a1-3)[Gal(b1-4)GlcNAc(b1-2)Man(a1-6)][Gal(b1-4)GlcNAc(b1-4)]Man(b1-4)GlcNAc(b1-4)[Fuc(a1-6)]GlcNAc
# Summary of the method: as §1
# [26] = molecular target: Gal(b1-4)GlcNAc(b1-2)Man(a1-3)[Gal(b1-4)GlcNAc(b1-2)Man(a1-6)][GlcNAc(b1-4)]Man(b1-4)GlcNAc(b1-4)[Fuc(a1-6)]GlcNAc
# Summary of the method: as §1
# [27] = molecular target: Gal(b1-4)GlcNAc(b1-2)Man(a1-3)[GlcNAc(b1-2)Man(a1-6)]Man(b1-4)GlcNAc(b1-4)GlcNAc
# Summary of the method: as §1
# [28] = molecular target: Gal(b1-4)GlcNAc(b1-2)Man(a1-3)[GlcNAc(b1-4)][Gal(b1-4)GlcNAc(b1-2)Man(a1-6)]Man(b1-4)GlcNAc(b1-4)GlcNAc
# Summary of the method: as §1
# [29] = molecular target: Gal(b1-4)GlcNAc(b1-2)Man(a1-3)[Man(a1-6)]Man(b1-4)GlcNAc(b1-4)GlcNAc
# Summary of the method: as §1
# [30] = molecular target: Gal(b1-4)GlcNAc(b1-2)Man(a1-6)Man(b1-4)GlcNAc(b1-4)GlcNAc
# Summary of the method: as §1
# [31] = molecular target: Gal(b1-4)GlcNAc(b1-2)Man(a1-6)[GlcNAc(b1-2)Man(a1-3)]Man(b1-4)GlcNAc(b1-4)GlcNAc
# Summary of the method: as §1
# [32] = molecular target: Gal(b1-4)GlcNAc(b1-2)Man(a1-6)[Man(a1-3)]Man(b1-4)GlcNAc(b1-4)GlcNAc
# Summary of the method: as §1
# [33] = molecular target: Gal(b1-4)GlcNAc(b1-2)[Gal(b1-4)GlcNAc(b1-4)]Man(a1-3)[Gal(b1-4)GlcNAc(b1-2)Man(a1-6)]Man(b1-4)GlcNAc(b1-4)GlcNAc
# Summary of the method: as §1
# [34] = molecular target: Gal(b1-4)GlcNAc(b1-2)[Gal(b1-4)GlcNAc(b1-4)]Man(a1-3)[Gal(b1-4)GlcNAc(b1-2)[Gal(b1-4)GlcNAc(b1-6)]Man(a1-6)]Man(b1-4)GlcNAc(b1-4)GlcNAc
# Summary of the method: as §1
# [35] = molecular target: Gal(b1-4)GlcNAc(b1-2)[Gal(b1-4)GlcNAc(b1-4)]Man(a1-3)[GlcNAc(b1-4)][Gal(b1-4)GlcNAc(b1-2)Man(a1-6)]Man(b1-4)GlcNAc(b1-4)GlcNAc
# Summary of the method: as §1
# [36] = molecular target: Gal(b1-4)GlcNAc(b1-2)[Gal(b1-4)GlcNAc(b1-4)]Man(a1-3)[GlcNAc(b1-4)][Gal(b1-4)GlcNAc(b1-2)[Gal(b1-4)GlcNAc(b1-6)]Man(a1-6)]Man(b1-4)GlcNAc(b1-4)GlcNAc
# Summary of the method: as §1
# [37] = molecular target: Gal(b1-4)GlcNAc(b1-2)[Gal(b1-4)GlcNAc(b1-6)]Man(a1-6)[Gal(b1-4)GlcNAc(b1-2)Man(a1-3)]Man(b1-4)GlcNAc(b1-4)GlcNAc
# Summary of the method: as §1
# [38] = molecular target: Gal(b1-4)GlcNAc(b1-2)[Gal(b1-4)GlcNAc(b1-6)]Man(a1-6)[Gal(b1-4)GlcNAc(b1-2)Man(a1-3)]Man(b1-4)GlcNAc(b1-4)[Fuc(a1-6)]GlcNAc
# Summary of the method: as §1
# [39] = molecular target: Gal(b1-4)GlcNAc(b1-2)[Gal(b1-4)GlcNAc(b1-6)]Man(a1-6)[GlcNAc(b1-4)][Gal(b1-4)GlcNAc(b1-2)Man(a1-3)]Man(b1-4)GlcNAc(b1-4)GlcNAc
# Summary of the method: as §1
# [40] = molecular target: Gal(b1-4)GlcNAc(b1-2)[Gal(b1-4)GlcNAc(b1-6)]Man(a1-6)[GlcNAc(b1-4)][Gal(b1-4)GlcNAc(b1-2)[Gal(b1-4)GlcNAc(b1-4)]Man(a1-3)]Man(b1-4)GlcNAc(b1-4)[Fuc(a1-6)]GlcNAc
# Summary of the method: as §1
# [41] = molecular target: Gal(b1-4)GlcNAc(b1-3)Gal(b1-3)GalNAc
# Summary of the method: as §1
# [42] = molecular target: Gal(b1-4)GlcNAc(b1-3)Gal(b1-3)GlcNAc
# Summary of the method: as §1
# [43] = molecular target: Gal(b1-4)GlcNAc(b1-3)Gal(b1-4)Glc
# Summary of the method: as §1
# [44] = molecular target: Gal(b1-4)GlcNAc(b1-3)Gal(b1-4)GlcNAc
# Summary of the method: as §1
# [45] = molecular target: Gal(b1-4)GlcNAc(b1-3)Gal(b1-4)GlcNAc(b1-2)Man(a1-3)[Gal(b1-4)GlcNAc(b1-3)Gal(b1-4)GlcNAc(b1-2)Man(a1-6)]Man(b1-4)GlcNAc(b1-4)GlcNAc
# Summary of the method: as §1
binder,measurement,setting,value
DrGal3 (Danio rerio) (protein) MDLSDALDAPPQQNNQQAGGPVWPGQPANPVWPGQPANPTWPGQPNQPAWPGQPNQQWPGQPGQPTAPGWPGPAPQTGPYGAPGQAPQVLTVPLDFPLQNGAYNKMLITINGEVKPNAKQFTVNLRRGNDIAFHINPRFSEGGKPVIVRNSMIGNNWGREERELPSFPFVPGKPFEMKILITDTEYKVAVNKSHLLEFKHRVFELNQITGLSIYNDVTLSTVNVETLQ,glycan array binding signal (z-score),[1],-0.277
same,glycan array binding signal (z-score),[2],-0.179
same,glycan array binding signal (z-score),[3],-0.29
same,glycan array binding signal (z-score),[4],-0.222
same,glycan array binding signal (z-score),[5],-0.213
same,glycan array binding signal (z-score),[6],-0.223
same,glycan array binding signal (z-score),[7],-0.24
same,glycan array binding signal (z-score),[8],-0.271
same,glycan array binding signal (z-score),[9],-0.208
same,glycan array binding signal (z-score),[10],-0.231
same,glycan array binding signal (z-score),[11],-0.245
same,glycan array binding signal (z-score),[12],-0.236
same,glycan array binding signal (z-score),[13],-0.248
same,glycan array binding signal (z-score),[14],-0.192
same,glycan array binding signal (z-score),[15],-0.176
same,glycan array binding signal (z-score),[16],-0.252
same,glycan array binding signal (z-score),[17],-0.254
same,glycan array binding signal (z-score),[18],-0.19
same,glycan array binding signal (z-score),[19],-0.237
same,glycan array binding signal (z-score),[20],-0.216
same,glycan array binding signal (z-score),[21],-0.126
same,glycan array binding signal (z-score),[22],-0.223
same,glycan array binding signal (z-score),[23],-0.262
same,glycan array binding signal (z-score),[24],-0.232
same,glycan array binding signal (z-score),[25],-0.247
same,glycan array binding signal (z-score),[26],-0.281
same,glycan array binding signal (z-score),[27],-0.284
same,glycan array binding signal (z-score),[28],-0.287
same,glycan array binding signal (z-score),[29],-0.152
same,glycan array binding signal (z-score),[30],-0.277
same,glycan array binding signal (z-score),[31],-0.261
same,glycan array binding signal (z-score),[32],-0.24
same,glycan array binding signal (z-score),[33],-0.25
same,glycan array binding signal (z-score),[34],-0.262
same,glycan array binding signal (z-score),[35],-0.262
same,glycan array binding signal (z-score),[36],-0.282
same,glycan array binding signal (z-score),[37],-0.274
same,glycan array binding signal (z-score),[38],-0.212
same,glycan array binding signal (z-score),[39],-0.222
same,glycan array binding signal (z-score),[40],-0.255
same,glycan array binding signal (z-score),[41],-0.153
same,glycan array binding signal (z-score),[42],-0.196
same,glycan array binding signal (z-score),[43],0.327
same,glycan array binding signal (z-score),[44],0.587
same,glycan array binding signal (z-score),[45],1.41
